# Experimental data taken from PubChem BioAssay AID485313 (National Center for Advancing Translational Sciences (NCATS), 2010).
# Hit rate of the full screen: of about 320,000 compounds, about 7,600 (2.4%) were called active. The inconclusive results got no clear call from the source; some entries with a clear call stand among them for comparison. The call rests on the fitted dose curve; in most records, active means well fitted activation curve with a large enough effect; inconclusive means small, poorly fitted or top-dose-only effect; inactive means no such curve, though single readings can be large or run the other way. Potencies of inconclusive entries are left out as doubtful fits.
# Test: qHTS Assay for NPC1 Promoter Activators; further: nearly all actives have a fitted effect of over 60% in size;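 on activation: reporter is driven by a mutant NPC1 promoter; % of control where 0% means no effect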
# Conditions: Huh7 NPC1 promoter luciferase reporter, 24 h; series mostly up to 9.22 µM; activation: at the top concentration
# Summary of the method: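 Huh7 cells stably carrying NPC1 promoter–luciferase, plated in Opti-MEM with 10% FBS for 2 h, were exposed to compound in DMSO for 24 h at 37 °C; luciferase reagent was added for 10 min and luminescence read.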
# Potency means the concentration at half of the fitted maximal effect; tags describe the fitted curve by direction and shape.
SMILES,Potency,activation
Cc1oc2c(c1C(=O)Nc1cccc(C(=O)O)c1)CCCC2,"inconclusive [activator, partial curve]",–
CCOC(=O)Nc1cccc(NC(=O)c2cc(OC)cc(OC)c2)c1,"inconclusive [activator, single point]",–
NC(=O)c1nsc(C(=O)N(c2ccccc2)C(C(=O)NC2CCCC2)c2ccc3ncccc3c2)c1N (centres undefined),–,inactive: 2.2%
CCCCN(C(=O)CSc1nnc(Nc2ccccc2)s1)c1c(N)n(CCC)c(=O)[nH]c1=O,–,inactive: -0.622%
Cc1ccc2c(c1)Cc1nc3ccccc3nc1-2,–,inactive: 3.71%
Cc1cc(C)cc(-c2nc(-c3ccncc3)no2)c1,"inconclusive [activator, single point]",–
O=C(O)c1ccc(N/N=C/C=C/c2ccccc2[N+](=O)[O-])cc1,active: 1.41 µM,–
COc1cccc(-n2cc(C(=O)NCCCOC(C)C)c3ccccc3c2=O)c1,–,inactive: -1.99%
CCOc1ccc(NC(=O)Nc2cccc(C)n2)cc1,active: 3.55 µM,–
Cc1ccc(O)c(N=CC2=C(O)c3ccccc3C2=O)c1,"inconclusive [activator, single point]",–
CCC(=O)Nc1ccc(Cl)c(NC(=S)NC(=O)c2cc3ccccc3o2)c1,"inconclusive [activator, partial curve]",–
O=C(COc1ccccc1C(=O)c1cnn(-c2ccccc2)c1)Nc1ccc2ccccc2c1,"inconclusive [activator, partial curve]",–
O=C(Nc1nccs1)c1ccc([N+](=O)[O-])cc1,"inconclusive [activator, single point]",–
O=C(Nc1cccc2ncccc12)c1ccc(-c2ccc(Cl)cc2Cl)o1,"inconclusive [activator, single point]",–
Cc1cc2cc(CNC(=O)Nc3ccccc3)ccc2[nH]1,"inconclusive [activator, partial curve]",–
c1ccc2nc3c(nc2c1)OCC1CCCCN31 (centres undefined),active: 4.47 µM,–
COC(=O)c1sccc1-c1ccc(C(N)=O)o1,–,inactive: 0.0131%
CSc1ccccc1NC(=O)c1cc(-c2ccc3c(c2)OCO3)on1,"inconclusive [activator, full curve, poor fit]",–
CSc1nnc(CCNS(=O)(=O)c2ccc(Br)cc2)n1C,–,inactive: -5.83%
COc1cc(NC(=O)c2cccs2)c(C(=O)OCC(=O)c2cc(C)n(-c3ccc(F)cc3)c2C)cc1OC,–,inactive: -0.447%
COc1ccccc1C(=O)Nc1ccc2c(c1)nc(CCNC(C)=O)n2C,"inconclusive [activator, partial curve]",–
CS(=O)(=O)Nc1ccc(C(=O)Nc2ccc3c(c2)OCCO3)cc1,"inconclusive [activator, partial curve]",–
Cc1ccc(-n2ccnc2SCC(=O)c2c(N)n(C3CC3)c(=O)[nH]c2=O)cc1C,–,inactive: 1.1%
CC1=CC(C)(C)[N+](C)(C)c2ccccc21,–,inactive: -0.604%
Cc1ccccc1NC(=O)OCc1ccccc1,"inconclusive [activator, partial curve]",–
COc1ccc(-c2nc(-n3c(C)c(C(C)=O)c(C(C)=O)c3C)sc2C)cc1,–,inactive: 0.485%
CCCOc1ccc(C(=O)N2CC3(CC(c4cccc(NC(=O)[C@@H]5CCC(=O)N5)c4)=NO3)C[C@H]2C(=O)NC2(C(N)=O)CC2)cc1 (some centres undefined),–,inactive: 0.997%

SMILES,Potency,activation
CC(=O)C1=C(O)C(=O)N(CCCN2CCOCC2)C1c1ccccc1[N+](=O)[O-] (centres undefined),"inconclusive [activator, partial curve]",–
CC(C)(C)NC(=S)NNC(=O)c1cccc(Br)c1,"inconclusive [activator, single point]",–
Cc1ccc(/C(N)=N/OC(=O)c2cccc(F)c2)cc1,–,inactive: 13.5%
O=C(/C=C/c1ccccc1Cl)NCc1cccs1,–,inactive: 27.9%
Cc1ccc(C(=O)CC(=O)c2cc(Cl)ccc2O)cc1,–,inactive: 18.7%
CC(=O)Nc1cccc(C(=O)NCCc2ccco2)c1,"inconclusive [activator, partial curve]",–
O=C(Nc1nc2ccc(Cl)cc2s1)c1ccc(Br)o1,active: 3.55 µM,–
Nc1c(N=Nc2ccccc2F)c(=O)[nH]n1-c1ccccc1,"inconclusive [activator, single point]",–
Cc1cc(NC(=O)c2ccc(F)cc2)no1,"inconclusive [activator, partial curve]",–
Cc1occc1C(=O)Nc1ccc2c(c1)CCC2,active: 3.55 µM,–
COC(=O)c1cccc(NC(=O)Nc2ccc(Cl)cc2Cl)c1,"inconclusive [activator, single point]",–
CCOc1ccc(-c2cnc3ccccc3n2)cc1,"inconclusive [activator, single point]",–
O=C(Nc1ccccc1N1CCN(C(=O)c2ccc(Cl)cc2)CC1)c1ccc2c(c1)OCO2,–,inactive: 4.06%
O=C(Nc1nccs1)C1Cc2ccccc2CN1S(=O)(=O)c1ccc(F)cc1 (centres undefined),"inconclusive [activator, partial curve]",–
COc1ccc(NCc2nc3ccccc3n2CCOc2ccccc2)cc1,"inconclusive [activator, partial curve]",–
O=C(NCC1CCCO1)c1ccc2nc(N3CCCCC3)sc2c1 (centres undefined),active: 2 µM,–
O=c1c2c3c(sc2nc2n1CCCCC2)C(O)CCC3 (centres undefined),"inconclusive [activator, partial curve]",–
C/C(=N/NC(=O)c1ccc2nc[nH]c2c1)c1cccs1,active: 2 µM,–
O=C(Nc1nccs1)c1ccc2nccnc2c1,"inconclusive [activator, single point]",–
COC(=O)c1c(NC(=O)C2CC2)sc(C(=O)Nc2ccccc2)c1C,"inconclusive [activator, partial curve]",–
Oc1ccccc1C=Nc1ccccc1-c1nc2ccccc2[nH]1,"inconclusive [activator, single point]",–
COc1ccccc1C(=O)Nc1ccc(C(=O)c2ccccc2)cc1,–,inactive: -5.44%
Cc1cnc(C(=O)Nc2ccc(F)c(F)c2)cn1,"inconclusive [activator, partial curve]",–
O=C(Cc1ccc(Cl)cc1)Nc1ccccn1,–,inactive: 13.6%
c1cc2c(cc1Nc1nc(-c3ccc4c(c3)OCO4)cs1)OCCO2,active: 3.16 µM,–
O=C(Nc1ccccc1)c1cc(-c2ccccc2Cl)no1,"inconclusive [activator, single point]",–
COc1ccc(NC(=O)/C=C/c2ccc(OC(F)F)cc2)cn1,–,inactive: -44.9%

SMILES,Potency,activation
CN(C)c1ccc(/C=N/Nc2nc3ccccc3o2)cc1,"inconclusive [activator, partial curve, poor fit]",–
CC(C)c1csc(CN2CCN(CCc3ccccc3)C(CCO)C2)n1 (centres undefined),–,inactive: -0.525%
O=C(Nc1ccccc1C(=O)NCCc1ccccc1)c1ccco1,"inconclusive [activator, partial curve]",–
COCCn1cnc2c1c(=O)n(CC(=O)OCC(=O)NCCCc1ccccc1)c(=O)n2Cc1ccccc1,–,inactive: -0.992%
COc1ccc(-c2cc(CS(=O)(=O)c3ccccc3)on2)cc1,active: 3.16 µM,–
c1ccc(Nc2nc(CSc3ncn[nH]3)cs2)cc1,"inconclusive [activator, single point]",–
Cc1onc(-c2c(Cl)cccc2Cl)c1COC(=O)c1ccc(Cl)cc1[N+](=O)[O-],–,inactive: -4.75%
Cc1c(C(=O)O)[nH]c2c1C(=O)CC(c1ccc(C(C)(C)C)cc1)C2 (centres undefined),"inconclusive [activator, single point]",–
CCOc1ccccc1NC(=O)CSc1nnc(NC(=O)c2ccco2)s1,–,inactive: -0.831%
Cc1ccc(CNc2ncnc(N)c2[N+](=O)[O-])cc1,"inconclusive [activator, single point]",–
COc1ccc2cc(C(=O)c3ccccc3)c(=O)oc2c1,"inconclusive [activator, single point]",–
Cc1ccc(-n2nc(-c3ccc(N)cc3)cc2N)cc1,"inconclusive [activator, partial curve]",–
Cc1[nH]n(-c2ccc([N+](=O)[O-])cc2)c(=O)c1C=NCCc1ccc(S(N)(=O)=O)cc1,–,inactive: -0.888%
COc1ccc(C2CC(c3ccc(C)o3)=NN2C(C)=O)cc1 (centres undefined),"inconclusive [activator, single point]",–
O=C(COc1ccccc1)NNc1nc2c(F)cc(F)cc2s1,–,inactive: -1.98%
CCCc1cc(=O)oc2c(C)c(OCC(=O)NCCCn3ccnc3)ccc12,–,inactive: 1.24%
COc1ccc(S(=O)(=O)N2Cc3ccccc3CC2C(=O)Nc2nccs2)cc1 (centres undefined),–,inactive: 17.8%
Cc1noc(/C=C/N(C)C)c1S(=O)(=O)N1CCCC(C(=O)N2CCCCC2)C1 (centres undefined),"inconclusive [activator, single point]",–
CCOC(=O)N1CCC(NC(=O)c2cc(C(=O)Nc3cccc(C(F)(F)F)c3)ccc2CO)CC1,–,inactive: -13.4%
Cc1ccc(-c2nc3ccc([N+](=O)[O-])cc3[nH]2)cc1,active: 1.58 µM,–
Cc1nn(C)cc1/C=C/C(=O)c1ccccc1,"inconclusive [activator, single point]",–
Fc1ccc(-c2nnc(Cc3ccc(Cl)cc3)o2)cc1,"inconclusive [activator, single point]",–
COc1ccc(NC(=O)CC2C(=O)N(c3ccc(OC)cc3)C(=O)N2C(C)C)cc1 (centres undefined),–,inactive: 10.3%
C=CCN(C(=O)c1csnn1)C(C(=O)NC1CCCC1)c1cccs1 (centres undefined),–,inactive: 0.531%
CCCCN(CC(=O)NC1CCCC1)C(=O)C(=O)Nc1ccc2c(c1)OCCO2,"inconclusive [activator, single point]",–
